Laboratory results taken from the supplement of paper PMC3334620.
In all, about 33,000 sequences were measured (“E-score (-0.5 to 0.5)”: median about -0.017, highest 2% from about 0.3 on). Some of the results follow.

These sequences were tested against T1, Sut1 (UniProt P53032) (assay: PBM E-score (8-mer binding enrichment) (E-score (-0.5 to 0.5)); higher = stronger / more preferred TF binding; most listed sequences are background and not binding sites). Conditions: protein concentration: 200 nM; construct: GST-full length.
T1 sequence: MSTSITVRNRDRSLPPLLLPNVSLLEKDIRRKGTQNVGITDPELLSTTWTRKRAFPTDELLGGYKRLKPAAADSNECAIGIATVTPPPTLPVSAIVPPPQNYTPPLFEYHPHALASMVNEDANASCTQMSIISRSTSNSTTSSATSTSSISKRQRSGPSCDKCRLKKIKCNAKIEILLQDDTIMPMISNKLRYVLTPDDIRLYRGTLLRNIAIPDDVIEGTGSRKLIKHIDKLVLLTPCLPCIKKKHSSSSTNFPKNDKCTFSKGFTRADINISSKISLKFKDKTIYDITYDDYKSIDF
In short: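 GST-tagged yeast TFs (full-length or DNA-binding domain) were made by PURExpress in vitro transcription/translation and applied at about 100-200 nM to universal all-10-mer Agilent arrays. The arrays were made double-stranded by primer extension, on fresh or once-stripped slides. Bound protein was detected with fluorescent anti-GST, and scans were normalised with masliner. Each ungapped eight-base word, pooled with its reverse complement, received an E-score (modified Wilcoxon-Mann-Whitney statistic) from the Universal PBM Analysis Suite.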

Sequence | PBM E-score
ATTCTCAC | 0.117
ACGCCGTG | -0.102
ACTGTAAT | 0.0264
GTACAGGA | -0.0133
ATCTACTC | 0.235
CTAGAGCA | -0.189
GCTATGCA | -0.271
AGTGGAGG | -0.123
ACATGCGG | -0.0523
ATCGGAGG | 0.0998
AGAGACGC | -0.098
CGGTTGAA | 0.0439
AAGAGCCG | 0.0308
GGGCACGA | -0.146
CGGTCCAC | -0.219
GCCCCGGC | -0.132
AGCTACTA | 0.107
CACTTGAC | -0.05
GACTTATC | -0.0236
TAGAATGA | 0.0776
GTACTACA | 0.161
ACTTTTTG | -0.00642
ACCAGTCC | -0.0976
CATGTTAA | 0.132
GAGGAATA | 0.00482

Sequence | PBM E-score
ATTAGGCC | 0.0267
ATCCCGAG | -0.0219
GGGCGACA | -0.287
AATCATCG | 0.124
GCCGCGAC | -0.189
AGAGAGAT | 0.0383
CCGCTTCA | -0.0538
ATGGGTTA | 0.0789
GGCCCGAA | -0.0545
GGTCCAAA | -0.168
ATTTTAGA | 0.154
AGACCCAC | -0.094
CAGACTTC | -0.161
AGGAGGTA | -0.0313
AGCACGCC | -0.0599
GCAGACAA | -0.0189
ATCTGCAA | -0.183
ACTCAGCT | -0.0442
CCGACTGC | -0.0745
AGGAACGA | -0.214
ACTCTCGC | 0.0302
ACCGCGCT | -0.0265
ACTGCGGA | 0.166
CGCGAAGA | 0.0395
ACTTTTAA | 0.103

Sequence | PBM E-score
CCACGAGC | 0.0588
AGTTTCCC | -0.011
GATCGGGC | -0.0436
AGATATGG | 0.0624
CCCTGAAA | -0.181
CCTGTAAA | -0.0447
AAAGCCAA | 0.118
GATCCTAA | -0.209
ATCTTTGG | 0.00476
CCAGAGGG | -0.215
ATTCGAGG | -0.266
CTCAACAA | 0.115
GAATCGTC | -0.00672
GGCAGAAC | -0.146
CGGTTGGC | 0.0506
CTTGGTAA | 0.0229
ATATTACA | 0.268
GACATCCC | -0.0101
AGTCTAGC | 0.0641
AATATAAA | 0.315
GCGCTTGA | 0.0596
AAACCTGA | -0.00998
ACTGAAGG | -0.0334
CAGTGCAG | -0.166
CGTAGCCA | -0.235

Sequence | PBM E-score
ACGCACGC | 0.168
CTAGGTGA | -0.168
AGCCACGG | -0.0398
AACCATGG | -0.0967
ATGGTAAT | 0.0919
AGATCGTA | -0.0816
ATGTACAT | 0.174
TTGGACAA | 0.00395
CGTACCAG | -0.0344
AGCCGTCA | -0.0573
CCAGCGAG | -0.137
GCTTGTCC | -0.0586
ACCAGCCT | -0.198
ATCAATTC | 0.135
GTTAAAAA | 0.167
CCCGCTTC | -0.0598
CTTGGAAA | 0.0947
AACCCACT | 0.0981
GGGGGTGA | -0.178
CACCGGGC | -0.0153
AGGAGGAT | -0.208
AAGCCTAC | -0.0895
TGTCCAAA | 0.124
ATTCCGTC | 0.143
AAGACCTT | -0.0567

Sequence | PBM E-score
GTGTCCGA | 0.149
GTTGCGCA | -0.226
AGCAAGCG | -0.183
GGGGACAC | -0.142
CTTAGTGC | -0.0466
CCTTGGAC | -0.141
CCATGTCA | -0.242
GGCAGCCC | -0.175
GAAGGCAC | -0.0462
CCTGAACC | -0.185
GTATACAC | -0.0284
ACAGGCAT | -0.177
AGGATCGA | -0.00806
AGCCGGAG | 0.371
CCGGACCA | 0.241
ACAAGCCC | -0.21
AAGTATAT | 0.24
ACTTGCGA | 0.0658
ATGGCGTC | -0.253
AAACGTGC | -0.0163
CGAATTAA | 0.21
CCATGTCG | -0.0375
AGCTTCCG | 0.199
CCCATAAC | -0.0366
AGTTTATA | 0.335

Sequence | PBM E-score
ATCAGTAG | -0.108
ATCCGACC | 0.00218
AGGTAAAG | 0.174
ACAGTTGA | 0.0424
CATGGACC | -0.195
ACCCCATC | -0.168
AATTACTG | 0.0499
ACTGCGCA | 0.0539
CGCTAACA | 0.017
ACATATGC | -0.245
CGAGTATA | 0.0489
ATATTTTA | 0.27
TCTTGCAA | 0.155
CCCAGGGA | -0.392
TGGAGTAA | 0.0966
CGAAATCC | 0.131
ATCCTGAC | -0.0644
AACAGCCT | -0.166
AGACCGAC | 0.0776
GCCACCGA | -0.19
ACGTTATC | -0.0701
AGCACTGA | 0.155
CGAAATTA | 0.255
CCGCTTAC | -0.117
GAACATGA | -0.0307

Sequence | PBM E-score
ACCTGTAG | -0.22
CATCCCGG | 0.0601
ATAAGAGG | 0.109
ACAAGAAG | 0.123
ATGTGCCG | -0.256
GTGGCAGA | -0.253
CACGCGCG | -0.0182
CTTATGCC | -0.0906
CCGGCACC | 0.126
GCAAGGGC | -0.254
ATCGATTG | 0.06
AACGCCAG | -0.0217
CCCTCGCC | -0.406
CATGCCTA | -0.213
TACAAACA | 0.234
AACCCTGA | -0.0483
TTGCCAAA | 0.0153
CGCCAAAG | -0.237
ATAGATTG | 0.0985
GAGCCACA | -0.029
ACGACTGC | -0.191
AAACTCAC | -0.00143
